Each compound was assayed on wheat powdery mildew fungus (Blumeria graminis f. sp. tritici) (assay: Wheat powdery mildew control test (foliar spray on wheat seedlings)). Conditions: in Triticum aestivum, 168 h, read-out: control value.

SMILES | pest or weed control at 125 ppm [%]
N=C(N)NCCCCCCCCNC(=N)NCC#Cc1ccc(C(=N)N)cc1 [compound 165] | ≥ 75
N=C(N)NCCCCCCCCNC(=N)NC/C=C/c1ccc(C(=N)N)cc1 [compound 167] | ≥ 75
N=C(N)NCCCCCCCCNC(=N)NCCCc1ccc(C(=N)N)cc1 [compound 169] | ≥ 75
N=C(N)NCCCCCCCCNC(=N)NCCCCCOc1ccc(C(=N)N)cc1 [compound 171] | ≥ 75
N=C(N)c1ccc(OCCCn2ccn(CCCSc3ccc(C(=N)N)cc3)c2=N)cc1 [compound 173] | ≥ 75
N=C(NCCCOCc1ccc(C(=N)N)cc1)NCCCOCc1ccc(C(=N)N)cc1 [compound 175] | ≥ 75
N=C(N)NCCCCCCCNC(=N)NCCCSc1ccc(C(=N)N)cc1 [compound 177] | ≥ 75
N=C(N)NCCCCCCCNC(=N)NCCCOCc1ccc(C(=N)N)cc1 [compound 179] | ≥ 75
N=C(N)c1ccc(SCCCn2ccn(CCCSc3ccc(C(=N)N)cc3)c2=N)cc1 [compound 181] | ≥ 75
N=C(N)NCCCCCCCCn1ccn(CCCOc2ccc(C3=NCCCN3)cc2)c1=N [compound 184] | ≥ 75
N=C(N)NCCCCCCCNC(=N)NCCCCCOc1ccc(C(=N)N)cc1 [compound 186] | ≥ 75
N=C(N)NCCCCCCCCNC(=N)NCCCCOc1ccc(C(=N)N)cc1 [compound 188] | ≥ 75
N=C(N)NCCCCCCCNC(=N)NCCCOc1ccc(C2=NCCCN2)cc1 [compound 190] | ≥ 75
N=C(N)NCCCCCCCCNC(=N)NCCCOc1ccc(C2=NCCCN2)cc1 [compound 192] | ≥ 75
N=C(NCCCCOc1ccc(C(=N)N)cc1)NCCCCOc1ccc(C(=N)N)cn1 [compound 194] | ≥ 75
N=C(NCCCCOc1ccc(C(=N)N)cc1)NCCCc1cc2cc(C(=N)N)ccc2o1 [compound 196] | ≥ 75
N=C(N)NCCCCCCCCNC(=N)NCCCSc1ccc(C(=N)N)cc1 [compound 198] | ≥ 75
N=C(N)NCCCCCCCCNC(=N)NCCOCc1ccc(C(=N)N)cc1 [compound 200] | ≥ 75
N=C(N)NCCCCCCCNC(=N)NCCCCOc1ccc(C2=NCCCN2)cc1 [compound 202] | ≥ 75
N=C(N)NCCCCCCCCNC(=N)NCCCCOc1ccc(C2=NCCCN2)cc1 [compound 204] | ≥ 75

SMILES | pest or weed control at 125 ppm [%]
N=C(N)NCCCCCCCn1ccn(CCCOc2ccc(C3=NCCCN3)cc2)c1=N [compound 206] | ≥ 75
N=C(N)NCCCCCCCn1ccn(CCCCOc2ccc(C3=NCCCN3)cc2)c1=N [compound 208] | ≥ 75
N=C(N)NCCCCCCCCn1ccn(CCCCOc2ccc(C3=NCCCN3)cc2)c1=N [compound 210] | ≥ 75
N=C(N)NCCCCCCCCCn1ccn(CCCCOc2ccc(C3=NCCCN3)cc2)c1=N [compound 212] | ≥ 75
N=C(N)c1ccc(OCCCCn2ccn(CCCCOc3ccc(C4=NCCCN4)cc3)c2=N)cc1 [compound 214] | ≥ 75
N=C(N)NCCCCCCCCn1ccn(CCCCOc2ccc(C(=N)N)cc2)c1=N [compound 216] | ≥ 75
N=C(N)NCCCCCCCCCNC(=N)NCCCOc1ccc(C2=NCCCN2)cc1 [compound 218] | ≥ 75
N=C(N)NCCCCCCCCNC(=N)NCCOCc1ccc(C2=NCCCN2)cc1 [compound 220] | ≥ 75
N=C(N)NCCCCCCCCNC(=N)NCCCOCc1ccc(C2=NCCCN2)cc1 [compound 222] | ≥ 75
N=C(N)NCCCCCCCNC(=N)NCCCOCc1ccc(C2=NCCCN2)cc1 [compound 224] | ≥ 75
N=C(N)NCCCCCCCNC(=N)NCCOCc1ccc(C(=N)N)cc1 [compound 228] | ≥ 75
N=C(N)NCCCCCCCCNC(=N)NCCCOc1ccc(C(=N)N)cc1 [compound 230] | ≥ 75
N=C(N)NCCCCCCCCCNC(=N)NCCOc1ccc(C(=N)N)cc1 [compound 234] | ≥ 75
N=C(N)NCCCCCCCNC(=N)NCCOc1ccc(C(=N)N)cc1 [compound 236] | ≥ 75
N=C(N)NCCCCCCCNC(=N)NCCOCc1ccc(C2=NCCCN2)cc1 [compound 238] | ≥ 75
N=C(N)NCCCCCCCCNC(=N)NCCOc1ccc(C2=NCCCN2)cc1 [compound 240] | ≥ 75
N=C(N)NCCCCCCCCCNC(=N)NCCOc1ccc(C2=NCCCN2)cc1 [compound 242] | ≥ 75
N=C(N)NCCCCCCCCNC(=N)NCCCCOc1ccc(C2=NCCN2)cc1 [compound 246] | ≥ 75
N=C(N)NCCCCCCCCNC(=N)NCCCCCOc1ccc(C2=NCCCN2)cc1 [compound 248] | ≥ 75
N=C(N)NCCCCCCCCNC(=N)NCCCOCc1ccc(C2=NCCCN2)cn1 [compound 250] | ≥ 75

SMILES | pest or weed control at 125 ppm [%]
N=C(N)NCCCCCCCCNC(=N)NCCCc1ccc(C2=NCCCN2)cc1 [compound 252] | ≥ 75
N=C(N)NCCCCCCCCNC(=N)NCCCCOc1ccc(C2=NCCCCN2)cc1 [compound 254] | ≥ 75
CC1(C)CNC(c2ccc(OCCCCNC(=N)NCCCCCCCCNC(=N)N)cc2)=N1 [compound 256] | ≥ 75
CC1(C)CN=C(c2ccc(OCCCCNC(=N)NCCCCCCCCNC(=N)N)cc2)NC1 [compound 258] | ≥ 75
N=C(N)NCCCCCCCCNC(=N)NCCCc1cc2cc(C3=NCCCN3)ccc2o1 [compound 260] | ≥ 75
N=C(N)NCCCCCCCCNC(=N)NCc1ccc(C2=NCCCN2)cc1 [compound 262] | ≥ 75
N=C(N)NCCCCCCCCNC(=N)N1CCC(Oc2ccc(C3=NCCCN3)cc2)CC1 [compound 264] | ≥ 75
N=C(N)NCCCCCCCCNC(=N)NCCc1ccc(C2=NCCCN2)cc1 [compound 266] | ≥ 75
N=C(N)NCCCCCCCCn1ccn(CCOc2ccc(C3=NCCCN3)cc2)c1=N [compound 270] | ≥ 75
N=C(N)NCCCCCCCCNC(=N)NCCCc1ccc(C2=NCCCN2)cn1 [compound 273] | ≥ 75
N=C(N)NCCCCCCCCNC(=N)NCCCCOc1ccc(C2=NCCCN2)cn1 [compound 275] | ≥ 75
N=C(N)NCCCCCCCNC(=N)NCCCCOc1ccc(C2=NCC(N)CN2)cc1 (centres unmarked) [compound 277] | ≥ 75
N=C(N)NCCCCCCCCNC(=N)NCCCCOc1ccc(C2=NCC(N)CN2)cc1 (centres unmarked) [compound 279] | ≥ 75
N=C(N)NCCCCCCCCn1ccn(CCOc2ccc(C(=N)N)cc2)c1=N [compound 281] | ≥ 75
N=c1[nH]ccn1CCCCCCCCn1ccn(CCCOc2ccc(C3=NCCCN3)cc2)c1=N [compound 283] | ≥ 75
N=C(N)NCCCCCCCCNC(=N)NCCOc1ccc(C2=NCC(N)CN2)cc1 (centres unmarked) [compound 285] | ≥ 75
N=C(N)NCCCCCCCCNC(=N)NCCOc1ccc(C(=N)N)cc1 [compound 286] | ≥ 75
N=C(N)NCCCCCCCCNC(=N)NCCOc1ccc(C2=NCCCN2)nc1 [compound 288] | ≥ 75
CN1CCCN=C1c1ccc(OCCNC(=N)NCCCCCCCCNC(=N)N)cc1 [compound 300] | ≥ 75

— patent US10111437B2, “Substituted guanidines as fungicides” (Nippon Soda Co., Ltd., priority 2015, dated 2018)
